Laboratory results published in the supplement of paper PMC12217912.
Some of the results follow. Sequences were assembled here from the parent chain. Inactive controls read about 0.05.

B1: TEV protease; numbered along this chain (parent)
chain: MGESLFKGPRDYNPISSSICHLTNESDGHTTSLYGIGFGPFIITNKHLFRRNNGTLVVQSLHGVFKVKDTTTLQQHLVDGRDMIIIRMPKDFPPFPQKLKFREPQREERICLVTTNFQTKSMSSMVSDTSCTFPSGDGIFWKHWIQTKDGQCGSPLVSTRDGFIVGIHSASNFTNTNNYFTSVPKNFMELLTNQEAQQWVSGWRLNADSVLWGGHKVFMVKPEEPFQPVKEATQL

Variants of: B1
Experiment: raw area under fraction-flipped curve 0-4 h after induction (AUC4h, not background-subtracted), DNA-recorder readout of cleavage of the substrate (dimensionless); higher = more cleavage of the substrate by the protease variant
Details: temperature: 34 °C; time window: 0-4 h after rhamnose induction
Procedure: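 In vivo DNA recorder in E. coli TOP10(DE3) ΔrhaA at 34 °C. Each TEVp single-site mutant (parent TEVp 0) is paired with a single-site variant of the 7-mer TEVs (canonical ENLYFQ|S). The substrate sits between flexible linkers in a Bxb1-sfGFP-TEVs-SsrA fusion, so cleavage stabilises Bxb1 and speeds flipping of a recombination array, read by NGS. The value is the raw area under the fraction-flipped curve over 0-4 h after rhamnose induction (AUC4h), with ≥20 reads per time point. It is not background-subtracted; inactive controls average about 0.047.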
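Further: Bxb1 expression induced with 0.2% (w/v) L-rhamnose at OD600 near 0.5, cultures sampled hourly, flipped fraction per protease–substrate barcode pair counted by paired-end Illumina sequencing.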

Variant | area with substrate ANLYFQS | area with substrate CNLYFQS | area with substrate HNLYFQS | area with substrate KNLYFQS | area with substrate LNLYFQS | area with substrate MNLYFQS | area with substrate PNLYFQS | area with substrate QNLYFQS | area with substrate SNLYFQS | area with substrate TNLYFQS | area with substrate WNLYFQS | area with substrate DNLYFQS | area with substrate FNLYFQS | area with substrate GNLYFQS | area with substrate INLYFQS | area with substrate NNLYFQS | area with substrate RNLYFQS | area with substrate VNLYFQS | area with substrate YNLYFQS
MGESLFKGPRDYNPISSSICHLTNESDGHTTSLYGIGFGPFIITNKHLFRRNNGTLVVQSLHGVFKVKDTTTLQQHLVDGRDMIIIRMPKDFPPFPQKLKFREPQREERICLVTTNFQTKSMSSMVSDTSCTFPSGDGIFWKHWIQTKDGQCGSPLVSTRDGFIVGIHSASNFTNFNNYFTSVPKNFMELLTNQEAQQWVSGWRLNADSVLWGGHKVFMVKPEEPFQPVKEATQL [T176F] | 0.062 | 0.0343 | 0.061 | 0.113 | 0.0604 | 0.0351 | 0.0668 | 0.0644 | 0.0729 | 0.0491 | 0.0578 |  |  |  |  |  |  |  | 
MGESLFKGPRDYNPISSSICHLTNESDGHTTSLYGIGFGPFIITNKHLFRRNNGTLVVQSLHGVFKVKDTTTLQQHLVDGRDMIIIRMPKDFPPFPQKLKFREPQREERICLVTTNFQTKSMSSMVSDTSCTFPSGDGIFWKHWIQTKDGQCGSPLVSTRDGFIVGIHSASNFTNINNYFTSVPKNFMELLTNQEAQQWVSGWRLNADSVLWGGHKVFMVKPEEPFQPVKEATQL [T176I] | 0.0493 | 0.0613 | 0.0762 | 0.0618 | 0.0618 | 0.0621 | 0.0663 | 0.0571 |  | 0.0685 | 0.0586 | 0.0747 | 0.0655 | 0.0779 | 0.0697 | 0.0643 | 0.0649 | 0.0653 | 0.0578
MGESLFKGPRDYNPISSSICHLTNESDGHTTSLYGIGFGPFIITNKHLFRRNNGTLVVQSLHGVFKVKDTTTLQQHLVDGRDMIIIRMPKDFPPFPQKLKFREPQREERICLVTTNFQTKSMSSMVSDTSCTFPSGDGIFWKHWIQTKDGQCGSPLVSTRDGFIVGIHSASNFTNTENYFTSVPKNFMELLTNQEAQQWVSGWRLNADSVLWGGHKVFMVKPEEPFQPVKEATQL [N177E] | 0.0393 | 0.0841 | 0.0812 | 0.116 | 0.088 | 0.0867 | 0.0922 |  | 0.0808 | 0.0837 | 0.0631 | 0.0868 | 0.0907 | 0.0813 | 0.0882 | 0.0881 |  |  | 0.0421
MGESLFKGPRDYNPISSSICHLTNESDGHTTSLYGIGFGPFIITNKHLFRRNNGTLVVQSLHGVFKVKDTTTLQQHLVDGRDMIIIRMPKDFPPFPQKLKFREPQREERICLVTTNFQTKSMSSMVSDTSCTFPSGDGIFWKHWIQTKDGQCGSPLVSTRDGFIVGIHSASNFTNTNNYFTSVCKNFMELLTNQEAQQWVSGWRLNADSVLWGGHKVFMVKPEEPFQPVKEATQL [P184C] | 0.0665 |  |  | 0.0859 | 0.0655 | 0.0439 | 0.0697 |  | 0.0617 | 0.0673 | 0.0476 | 0.0746 |  | 0.0848 | 0.0551 | 0.0643 | 0.0682 | 0.0525 | 
